Reference: patent US20100210602A1, “PhoU (PerF), A P[…] INVOLVED IN [sequence] FORMATION AND TOLERANCE TO MULTIPLE ANTIBIOTICS AND [sequence] AS A DRUG TARGET FOR [sequence] BACTERIA” (priority 2006, published 2010)

System: W3110ΔphoU
Type: cell-based
Conditions: ampicillin 100 ug/ml, Fe3+ 250 uM

SMILES: CC1(C)S[C@@H]2[C@H](NC(=O)[C@H](N)c3ccccc3)C(=O)N2[C@H]1C(=O)O [Ampicillin, ampicillin]
- CFU after ampicillin exposure (Pi 0.01 mM): 1 × 10^8 CFU
- CFU after ampicillin exposure (Pi 2 mM): 1 × 10^7 CFU

Like-named read-outs stand apart in the source and are kept apart here.
